According to the supplement of paper PMC12217912:
The list shows a part of the results. Sequences were assembled here from the parent chain. Inactive controls read about 0.05.

B1: TEV protease; numbered along this chain (parent)
chain: MGESLFKGPRDYNPISSSICHLTNESDGHTTSLYGIGFGPFIITNKHLFRRNNGTLVVQSLHGVFKVKDTTTLQQHLVDGRDMIIIRMPKDFPPFPQKLKFREPQREERICLVTTNFQTKSMSSMVSDTSCTFPSGDGIFWKHWIQTKDGQCGSPLVSTRDGFIVGIHSASNFTNTNNYFTSVPKNFMELLTNQEAQQWVSGWRLNADSVLWGGHKVFMVKPEEPFQPVKEATQL

Variants of: B1
Experiment: raw area under fraction-flipped curve 0-4 h after induction (AUC4h, not background-subtracted), DNA-recorder readout of cleavage of the substrate (dimensionless); higher = more cleavage of the substrate by the protease variant
Details: temperature: 34 °C; time window: 0-4 h after rhamnose induction
Procedure: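 In vivo DNA recorder in E. coli TOP10(DE3) ΔrhaA at 34 °C. Each TEVp single-site mutant (parent TEVp 0) is paired with a single-site variant of the 7-mer TEVs (canonical ENLYFQ|S). The substrate sits between flexible linkers in a Bxb1-sfGFP-TEVs-SsrA fusion, so cleavage stabilises Bxb1 and speeds flipping of a recombination array, read by NGS. The value is the raw area under the fraction-flipped curve over 0-4 h after rhamnose induction (AUC4h), with ≥20 reads per time point. It is not background-subtracted; inactive controls average about 0.047.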
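Note: Bxb1 expression induced with 0.2% (w/v) L-rhamnose at OD600 near 0.5, cultures sampled hourly, flipped fraction per protease–substrate barcode pair counted by paired-end Illumina sequencing.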

| Variant | area with substrate ENLYAQS | area with substrate ENLYEQS | area with substrate ENLYGQS | area with substrate ENLYHQS | area with substrate ENLYIQS | area with substrate ENLYKQS | area with substrate ENLYMQS | area with substrate ENLYNQS | area with substrate ENLYPQS | area with substrate ENLYQQS | area with substrate ENLYRQS | area with substrate ENLYSQS | area with substrate ENLYVQS | area with substrate ENLYWQS | area with substrate ENLYCQS | area with substrate ENLYDQS | area with substrate ENLYTQS | area with substrate ENLYYQS | area with substrate ENLYLQS |
| --- | --- | --- | --- | --- | --- | --- | --- | --- | --- | --- | --- | --- | --- | --- | --- | --- | --- | --- | --- |
| S169F | 0.0507 | 0.0616 | 0.0576 | 0.058 | 0.0656 | 0.059 | 0.0553 | 0.0659 | 0.0652 | 0.0512 | 0.0711 | 0.0572 | 0.0677 | 0.0555 |  |  |  |  |  |
| S169T | 0.0873 | 0.077 | 0.0647 | 0.0691 | 0.137 | 0.0569 | 0.085 | 0.0856 | 0.0744 |  | 0.0578 | 0.0826 | 0.152 | 0.0676 | 0.0875 | 0.0511 | 0.0861 | 0.0628 |  |
| S171E | 0.0788 | 0.0497 |  | 0.0712 |  | 0.0643 |  |  | 0.0644 |  | 0.058 |  | 0.0564 | 0.0561 |  | 0.0662 |  |  |  |
| F173D | 0.0734 | 0.0722 | 0.0608 | 0.0615 | 0.0896 | 0.0652 | 0.06 | 0.069 | 0.0637 | 0.0777 | 0.0638 | 0.0614 | 0.104 | 0.069 |  | 0.0706 | 0.0709 |  | 0.131 |
| N175F | 0.0696 | 0.0452 | 0.0583 | 0.082 |  | 0.0536 |  | 0.0574 | 0.0524 | 0.0721 | 0.0576 | 0.0667 | 0.0865 |  |  | 0.0632 |  | 0.0682 |  |
| T176Y | 0.0804 | 0.0591 | 0.0705 | 0.0612 | 0.0714 | 0.0625 | 0.0519 | 0.05 | 0.0472 |  |  | 0.0473 |  | 0.0547 |  | 0.0622 | 0.0581 | 0.0621 | 0.0586 |
| N177A | 0.0768 | 0.0635 | 0.0836 | 0.0733 | 0.12 | 0.0935 | 0.0842 | 0.0709 | 0.0775 |  | 0.0573 | 0.088 | 0.13 | 0.0722 |  | 0.0612 | 0.0887 | 0.0617 |  |
| N177H | 0.0763 | 0.0621 |  |  | 0.0812 | 0.0634 | 0.0509 | 0.0498 | 0.066 | 0.0546 | 0.0649 |  |  | 0.105 |  | 0.0345 | 0.0772 |  |  |
| F180C | 0.0701 | 0.0681 |  | 0.0367 |  | 0.0448 | 0.0704 | 0.061 | 0.071 |  | 0.076 | 0.0704 |  |  |  | 0.0425 |  | 0.0465 |  |
| T181M | 0.0648 | 0.0658 | 0.0573 | 0.0718 | 0.0779 | 0.0682 | 0.0719 | 0.0616 | 0.0829 | 0.0716 | 0.0598 | 0.0643 | 0.0725 |  | 0.0672 | 0.0624 | 0.0582 |  | 0.0604 |
| K185T | 0.0828 | 0.0569 | 0.0662 | 0.077 | 0.106 | 0.0655 | 0.101 | 0.072 | 0.0725 |  | 0.0624 | 0.0592 | 0.122 | 0.0775 | 0.119 | 0.0597 | 0.0684 |  | 0.102 |
| N186L | 0.0816 | 0.0683 | 0.0643 | 0.0668 | 0.123 | 0.0602 | 0.103 | 0.068 | 0.0647 | 0.0675 | 0.0558 |  |  | 0.0728 |  | 0.0509 | 0.0721 | 0.0603 | 0.0838 |
